Test results reported in PubChem BioAssay AID624202 (National Center for Advancing Translational Sciences (NCATS), 2012).
About 4,000 (1.1%) of roughly 380,000 compounds were called active. The inconclusive results got no clear call from the source; some entries with a clear call stand among them for comparison. Calls come from the whole dose curve; as a rule, active = well fitted activation curve with a large enough effect; inconclusive = small, poorly fitted or top-dose-only effect; inactive = no such curve, though single readings can be large or run the other way. Potencies of inconclusive entries are doubtful fits and often do not repeat.

assay: qHTS Assay to Identify Small Molecule Activators of BRCA1 Expression; settings: MCF7-BRCA1-FFLuc reporter, luminescence, 48 h; activation: at 46.1 µM (top of the series), scaled: vehicle 0%, 10 µM genistein 100% unless noted; note: nearly all actives have a fitted effect of over 80% in size
How it was run: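 First, MCF7-BRCA1-FFLuc cells (2000/well) attach for 2 h; next, compounds are pin-added and incubated 48 h at 37 °C; finally, luciferase reagent is added and luminescence read after 15 min.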
Potency is the fitted concentration of half-maximal effect; tags give direction and shape of the fitted curve.

| SMILES | Potency | activation |
| --- | --- | --- |
| CCc1ccc(Nc2ncc3c(n2)CC(C)CC3=O)cc1 (stereo not drawn) | inconclusive: 3.55 µM [activator, partial curve, poor fit] |  |
| CC(C)(C)c1ccc(OCC(=O)NNC(=O)C2CCCO2)cc1 (stereo not drawn) | inactive |  |
| O=C(NCc1ccccc1)c1c[nH]c2cc3c(cc2c1=O)OCCO3 | inconclusive: 2.51 µM [activator, partial curve, poor fit] |  |
| O=C(Nc1ccc2c(c1)CCC2)c1ccccc1F | inconclusive: 1.12 µM [activator, full curve, poor fit] |  |
| Nc1c(OS(=O)(=O)c2ccccc2)cccc1OS(=O)(=O)c1ccccc1 | inconclusive: 1 µM [activator, full curve, poor fit] |  |
| COc1ccc(C(=O)Nc2ccccc2C(=O)Nc2cc(C)ccn2)cc1 | active: 2.24 µM |  |
| O=C(Nc1cccc(C(F)(F)F)c1)C1CCN(S(=O)(=O)c2cccc3nsnc23)CC1 | inactive |  |
| O=C(Nc1ccc(F)cc1)Nc1cccnc1 | inconclusive: 35.5 µM [activator, single point] |  |
| C/C(=N/NC(=O)c1ccccn1)c1ccncc1 | inconclusive: 10 µM [activator, partial curve, poor fit] |  |
| O=C(/C=C/c1ccccc1)Nc1cccc(C(=O)NC2CC2)c1 | inconclusive: 11.2 µM [activator, partial curve, poor fit] |  |
| O=C(CCOc1ccccc1)Nc1ccccc1 | inactive |  |
| O=C(Nc1ccc(F)cc1)Nc1ccc2c(c1)CCC2 | inconclusive: 2.82 µM [activator, full curve, poor fit] |  |
| Cc1cc(SCC(=O)c2ccccc2)n2ncc(-c3ccccc3)c2n1 | inconclusive: 14.1 µM [activator, partial curve, poor fit] |  |
| COC(=O)c1cccc(Nc2ncnc3ccc(C)cc23)c1 | inactive |  |
| O=C(/C=C/NNC(=O)c1ccccc1)c1ccccc1 | inactive |  |
| Cn1c(SCc2ccccc2[N+](=O)[O-])nnc1-c1cccnc1 | active: 11.2 µM |  |
| Cc1nc2cc(-c3ccc(Br)cc3)[nH]n2c(=O)c1Cl | active: 4.47 µM |  |
| Cc1c(C(=O)Oc2ccc(-c3cnc4ccccc4n3)cc2)cccc1[N+](=O)[O-] | inconclusive: 1.12 µM [activator, full curve, poor fit] |  |
| O=C(NNc1nc2ccccc2s1)Nc1ccc(F)cc1 | inconclusive: 7.08 µM [activator, full curve, poor fit] |  |
| O=C(Nc1ccc(N2CCCCC2)cc1)c1cccnc1 | inconclusive: 10 µM [activator, partial curve, poor fit] |  |
| Cc1nc2ccc(NC(=O)CCS(=O)(=O)c3ccccc3)cc2s1 | inconclusive: 11.2 µM [activator, partial curve, poor fit] |  |
| O=C(Nc1ccon1)c1ccc(Cl)c(S(=O)(=O)N2CCCCC2)c1 | inactive |  |
| O=C(O)c1ccccc1NN=C1CCCCC1 | inconclusive: 3.98 µM [activator, full curve, poor fit] |  |
| COc1ccc2nc3oc(C(=O)N4CCCCC4)cc3cc2c1 | active: 7.08 µM |  |

| SMILES | Potency | activation |
| --- | --- | --- |
| CC(=NNC(=S)N1CCCCC1)c1cccc(C)n1 |  | inconclusive: -79.5% [activator] |
| Cc1ccccc1C(=O)NC(=S)NCc1ccccc1 | inactive |  |
| CC(NC(=O)CN(C)S(=O)(=O)c1ccc(Br)s1)c1ccccc1 (stereo not drawn) | inactive |  |
| COc1cccc(COC(=O)C(Cc2ccccc2)NC(=O)c2ccco2)c1 (stereo not drawn) | inactive |  |
| COc1cc(/C=N/O)ccc1OCc1ccccc1Cl | inconclusive: 1.12 µM [activator, full curve, poor fit] |  |
| O=C(NCCc1c[nH]c2ccccc12)c1ccccc1 | active: 12.6 µM |  |
| COc1ccccc1-c1nc(COc2ccc(Cl)cc2Cl)no1 | active: 4.47 µM |  |
| CC1(C)NC(=O)N(CCCOc2ccc(Br)cc2Cl)C1=O | inconclusive: 11.2 µM [activator, partial curve, poor fit] |  |
| O=c1[nH]c(=O)n(Cc2ccccc2)c2nc(-c3ccc(Oc4ccc(F)cc4)c([N+](=O)[O-])c3)n(CCO)c12 | inactive |  |
| c1ccc2c(c1)NC1(CCCCCC1)n1c-2nc2ccccc21 | active: 2.82 µM |  |
| COCCCNC(=S)NC(=O)c1ccccc1 | inconclusive: 31.6 µM [activator, single point] |  |
| COc1cc(/C=C2\COC/C(=C\c3ccc(O)c(OC)c3)C2=O)ccc1O | inactive |  |
| C=CCC1(CC=C)CCCN1C(=O)C1CCC(=O)N(CCc2ccc(OC)cc2)C1 (stereo not drawn) | inconclusive: 12.6 µM [activator, partial curve, poor fit] |  |
| COc1cccc(CNc2ccc([N+](=O)[O-])cc2Cl)c1O | inconclusive: 17.8 µM [activator, partial curve, poor fit] |  |
| O=C1NC(=O)C(=CC=Cc2ccccc2)S1 | active: 10 µM |  |
| O=C(Nc1ccc2oc(-c3cccc(F)c3)nc2c1)c1ccccc1F | inconclusive: 2.51 µM [activator, partial curve, poor fit] |  |
| COc1ccc(C(=O)Nc2cccc3ccccc23)cc1 | inconclusive: 17.8 µM [activator, partial curve, poor fit] |  |
| CNc1nc(-c2ccc3c(c2)CCN3C(=O)CC(C)(C)C)c(C)s1 | active: 11.2 µM |  |
| O=C(NCc1cccs1)c1ccc2c(c1)ncn2C1CCCC1 | inconclusive: 15.8 µM [activator, single point] |  |
| Nc1nc2c(ccc3ccccc32)s1 | inconclusive: 12.6 µM [activator, partial curve, poor fit] |  |
| NC(=O)c1ccsc1NC(=O)c1coc2ccccc2c1=O | inconclusive: 0.501 µM [activator, full curve, poor fit] |  |
| CNC(=O)c1sc2nc(-c3ccc(OC)cc3)cn2c1C | inconclusive: 2.24 µM [activator, full curve, poor fit] |  |
| COc1ccc(C(=O)Nc2nnc(SCC(=O)NC3CCCC3)s2)c(OC)c1 |  | inconclusive: 60.4% [activator] |
| CC(=O)NCc1cc(-c2ccc(Cl)cc2)no1 | inactive |  |
